± gives the uncertainty stated by the source. The sequences are guide strands of siRNAs; only the seed at positions 2 to 7 varies.
Experiments:
[1] = test system: 3LL; assay: cell viability relative to siNT1 control; higher = less toxic; settings: concentration: 10 nM; 96 h; Mus musculus;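 further: Luminescence-based viability of cells reverse transfected in 384-well plates with lipid-complexed siRNAs built on a non-toxic 19mer backbone whose passenger strand carries 2′-O-methyl groups at positions 1 and 2, triplicates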
Experimental: (§1)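 Arrayed screen of 4096 siRNA duplexes, each carrying one of all possible 6mer seeds at guide-strand positions 2-7 in a fixed neutral 19mer scaffold (constant flanks: U at position 1, then ACAUGUAAACCA, plus a 3' AA overhang). The passenger strand is 2'-O-methylated at positions 1-2 so only the guide strand loads into RISC. Duplexes were reverse-transfected at 10 nM with RNAiMAX in triplicate in 384-well plates; viability was read by CellTiter-Glo ATP content 96 h after transfection. Values are % viability normalised to lipid-only wells (HeyA8, H460, M565) or to siNT1 (3LL).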

[2] = test system: M565; assay: cell viability relative to lipid-only control; HeyA8 human ovarian and H460 human lung cancer; M565 mouse liver and 3LL mouse lung cancer; siNT1 is a non-toxic control siRNA; higher = less toxic; settings: concentration: 10 nM; 96 h; Mus musculus
Experimental: as §1

[3] = test system: H460; assay: as above; settings: concentration: 10 nM; 96 h; Homo sapiens
Experimental: as §1

[4] = test system: HeyA8; assay: as above; settings: concentration: 10 nM; 96 h; Homo sapiens
Experimental: as §1
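Wherever cell viability relative to lipid-only control is given: reverse lipid transfection in 384-well plates, in triplicate, of duplexes on a non-toxic 19mer backbone with passenger strand 2′-O-methylated at positions 1 and 2, luminescence viability read-out.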

Row | Sequence | cell viability [1] [%] | cell viability [2] [%] | cell viability [3] [%] | cell viability [4] [%]
1 | UAGCAGCACAUGUAAACCAAA | 29.9 ± 3.6 | 22.2 ± 7.7 | 27.7 ± 0.82 | 36.5 ± 5.5
2 | UAGCAGGACAUGUAAACCAAA | 57.4 ± 14 | 24.9 ± 5.2 | 35.4 ± 0.56 | 46.8 ± 4.7
3 | UAGCAGUACAUGUAAACCAAA | 36.5 ± 2.2 | 28.7 ± 3.5 | 33.9 ± 2.4 | 38.1 ± 2.6
4 | UAGCAUAACAUGUAAACCAAA | 91.1 ± 12 | 59.7 ± 17 | 60.4 ± 3.9 | 89.1 ± 3.7
5 | UAGCAUCACAUGUAAACCAAA | 72.8 ± 7.7 | 6.91 ± 2.9 | 66.5 ± 7.3 | 70.7 ± 9.1
6 | UAGCAUGACAUGUAAACCAAA | 54.9 ± 5.3 | 21.8 ± 0.95 | 70.3 ± 14 | 81.9 ± 1.9
7 | UAGCAUUACAUGUAAACCAAA | 84.1 ± 11 | 64.2 ± 16 | 83.3 ± 6.9 | 65.9 ± 1.6
8 | UAGCCAAACAUGUAAACCAAA | 97.9 ± 5.8 | 31.6 ± 4.8 | 59.6 ± 2.8 | 69 ± 4.9
9 | UAGCCACACAUGUAAACCAAA | 44.1 ± 3.5 | 22 ± 2.8 | 60.9 ± 6.6 | 68.2 ± 5.3
10 | UAGCCAGACAUGUAAACCAAA | 41.4 ± 3.6 | 29.3 ± 2.7 | 52.6 ± 5 | 37.1 ± 2.7
11 | UAGCCAUACAUGUAAACCAAA | 87.1 ± 5.1 | 28.2 ± 7.1 | 40.7 ± 2 | 58.6 ± 4.4
12 | UAGCCCAACAUGUAAACCAAA | 24.8 ± 2.5 | 15.6 ± 0.67 | 40.9 ± 3.4 | 67.4 ± 3.2
13 | UAGCCCCACAUGUAAACCAAA | 61.1 ± 13 | 25.6 ± 9.9 | 66.4 ± 9 | 72 ± 5.7
14 | UAGCCCGACAUGUAAACCAAA | 60 ± 16 | 14.5 ± 3.9 | 61.4 ± 5.9 | 71.5 ± 6.4
15 | UAGCCCUACAUGUAAACCAAA | 18.3 ± 2.2 | 17.9 ± 1.9 | 46.8 ± 4.2 | 48.5 ± 3.9
16 | UAGCCGAACAUGUAAACCAAA | 81 ± 7.9 | 35.7 ± 15 | 71.5 ± 18 | 77.8 ± 5.2
17 | UAGCCGCACAUGUAAACCAAA | 7.69 ± 0.92 | 5.33 ± 0.49 | 21 ± 0.38 | 32.6 ± 0.58
18 | UAGCCGGACAUGUAAACCAAA | 78.7 ± 8.4 | 18 ± 4.9 | 58.2 ± 12 | 28.1 ± 4.2
19 | UAGCCGUACAUGUAAACCAAA | 48.5 ± 1.3 | 15.7 ± 2.2 | 56.9 ± 14 | 74.2 ± 3.6
20 | UAGCCUAACAUGUAAACCAAA | 101 ± 20 | 62.6 ± 7.8 | 75.7 ± 11 | 92.4 ± 14
21 | UAGCCUCACAUGUAAACCAAA | 15.8 ± 7.8 | 7.76 ± 3.1 | 59.3 ± 2.5 | 34.7 ± 4.7
22 | UAGCCUGACAUGUAAACCAAA | 58.8 ± 11 | 65.2 ± 2.1 | 64.3 ± 12 | 24.2 ± 2.1

Row | Sequence | cell viability [1] [%] | cell viability [2] [%] | cell viability [3] [%] | cell viability [4] [%]
23 | UAGCCUUACAUGUAAACCAAA | 49.7 ± 3 | 16.6 ± 1.1 | 52.9 ± 4 | 48.2 ± 7.4
24 | UAGCGAAACAUGUAAACCAAA | 94.5 ± 8.3 | 67.8 ± 5.3 | 85.2 ± 19 | 81.3 ± 7.3
25 | UAGCGACACAUGUAAACCAAA | 67 ± 2.7 | 60.8 ± 7.8 | 63.4 ± 6.2 | 24.3 ± 9
26 | UAGCGAGACAUGUAAACCAAA | 95.5 ± 9.8 | 43.9 ± 3.1 | 62.6 ± 1.4 | 83.4 ± 4.9
27 | UAGCGAUACAUGUAAACCAAA | 86 ± 11 | 80.7 ± 8 | 77.2 ± 17 | 68.1 ± 8.8
28 | UAGCGCAACAUGUAAACCAAA | 89.8 ± 9 | 55.4 ± 1 | 68.5 ± 5.2 | 90.2 ± 6.1
29 | UAGCGCCACAUGUAAACCAAA | 81.3 ± 3 | 54.1 ± 6.3 | 56.9 ± 8.7 | 53.7 ± 4.4
30 | UAGCGCGACAUGUAAACCAAA | 85.9 ± 7.4 | 41.5 ± 5.2 | 65.6 ± 4.7 | 61.9 ± 3.8
31 | UAGCGCUACAUGUAAACCAAA | 88.9 ± 10 | 37 ± 8 | 55.9 ± 10 | 69.5 ± 4.6
32 | UAGCGGAACAUGUAAACCAAA | 81.1 ± 6.1 | 28.1 ± 1.4 | 65.5 ± 4.5 | 43.4 ± 7.8
33 | UAGCGGCACAUGUAAACCAAA | 11.3 ± 2.2 | 10.2 ± 0.76 | 30.6 ± 11 | 4.4 ± 0.25
34 | UAGCGGGACAUGUAAACCAAA | 48 ± 6.2 | 42.1 ± 9.5 | 31.5 ± 4.7 | 8.36 ± 0.3
35 | UAGCGGUACAUGUAAACCAAA | 61 ± 3.5 | 19.7 ± 6.3 | 36.96 ± 0.18 | 7.54 ± 0.9
36 | UAGCGUAACAUGUAAACCAAA | 86.9 ± 17 | 66.2 ± 8 | 63.8 ± 3.3 | 77.7 ± 12
37 | UAGCGUCACAUGUAAACCAAA | 51.4 ± 1.6 | 33.6 ± 4.6 | 59 ± 7 | 41.9 ± 2.4
38 | UAGCGUGACAUGUAAACCAAA | 79.9 ± 9.8 | 59.2 ± 18 | 66.3 ± 4.1 | 83.7 ± 12
39 | UAGCGUUACAUGUAAACCAAA | 96.5 ± 13 | 74.8 ± 8.6 | 65.5 ± 7.5 | 77.2 ± 5.7
40 | UAGCUAAACAUGUAAACCAAA | 83 ± 6.9 | 54.6 ± 8.7 | 68.3 ± 13 | 83.05 ± 0.52
41 | UAGCUACACAUGUAAACCAAA | 71.3 ± 9.4 | 24.5 ± 1.1 | 70.4 ± 9.7 | 40.3 ± 3.2
42 | UAGCUAGACAUGUAAACCAAA | 63.3 ± 7.8 | 40.2 ± 5.8 | 67.8 ± 3.7 | 30 ± 4.1
43 | UAGCUAUACAUGUAAACCAAA | 69.6 ± 13 | 69.3 ± 9.4 | 45.4 ± 0.5 | 29.2 ± 5.6
44 | UAGCUCAACAUGUAAACCAAA | 70.1 ± 12 | 50.1 ± 7.4 | 83.8 ± 5.7 | 75.8 ± 3.8
